How the values were obtained:
Experiment in all cases: cell-based or functional assay
[1] = target: T1, native human MET on living cells (human, UniProt P08581)
[2] = target: T1, native human MET on living cells; remark: listed apart in the source
[3] = target: T1, native human MET on living cells; remark: listed apart in the source
[4] = target: T1, native human MET on living cells; remark: listed apart in the source

T1 sequence (P08581 25-1390): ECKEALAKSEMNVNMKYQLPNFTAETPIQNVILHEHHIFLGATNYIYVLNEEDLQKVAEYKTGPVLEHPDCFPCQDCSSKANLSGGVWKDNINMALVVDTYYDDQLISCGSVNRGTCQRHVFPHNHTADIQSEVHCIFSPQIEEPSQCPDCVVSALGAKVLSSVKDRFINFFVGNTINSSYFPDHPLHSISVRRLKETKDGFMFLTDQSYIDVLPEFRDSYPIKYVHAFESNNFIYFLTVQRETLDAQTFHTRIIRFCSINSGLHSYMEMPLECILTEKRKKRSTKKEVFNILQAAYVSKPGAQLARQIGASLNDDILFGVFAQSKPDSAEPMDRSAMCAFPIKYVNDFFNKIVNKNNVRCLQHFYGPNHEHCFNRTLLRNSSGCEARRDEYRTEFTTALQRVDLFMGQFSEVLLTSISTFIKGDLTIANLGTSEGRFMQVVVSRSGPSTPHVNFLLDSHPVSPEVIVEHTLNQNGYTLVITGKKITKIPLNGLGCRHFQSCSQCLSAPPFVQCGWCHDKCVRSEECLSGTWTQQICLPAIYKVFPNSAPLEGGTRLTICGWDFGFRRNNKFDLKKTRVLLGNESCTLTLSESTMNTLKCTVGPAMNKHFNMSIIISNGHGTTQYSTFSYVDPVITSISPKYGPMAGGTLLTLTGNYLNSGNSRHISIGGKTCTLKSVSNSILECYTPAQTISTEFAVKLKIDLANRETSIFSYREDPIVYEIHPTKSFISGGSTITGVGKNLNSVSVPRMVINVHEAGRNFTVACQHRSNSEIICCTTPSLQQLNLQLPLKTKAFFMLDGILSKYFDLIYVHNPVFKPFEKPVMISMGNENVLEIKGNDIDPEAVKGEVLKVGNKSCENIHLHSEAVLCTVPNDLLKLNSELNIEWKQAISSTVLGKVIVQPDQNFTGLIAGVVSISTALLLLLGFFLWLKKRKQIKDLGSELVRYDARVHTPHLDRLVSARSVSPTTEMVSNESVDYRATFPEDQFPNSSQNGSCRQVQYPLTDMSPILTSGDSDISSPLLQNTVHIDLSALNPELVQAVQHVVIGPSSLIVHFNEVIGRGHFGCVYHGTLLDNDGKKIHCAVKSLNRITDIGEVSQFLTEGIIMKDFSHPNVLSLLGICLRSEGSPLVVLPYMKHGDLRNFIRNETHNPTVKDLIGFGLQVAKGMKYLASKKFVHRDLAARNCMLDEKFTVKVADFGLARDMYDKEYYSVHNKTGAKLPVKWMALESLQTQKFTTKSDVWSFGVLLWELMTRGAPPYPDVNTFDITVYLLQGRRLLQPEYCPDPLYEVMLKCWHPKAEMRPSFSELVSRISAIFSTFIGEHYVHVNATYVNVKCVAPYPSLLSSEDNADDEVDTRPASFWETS

B1: recombinant human HGF (R&D Systems) (ligand)
chain: not shown
modifications: biotinylated at the N-terminus using NHS-LC-biotin (in the competition ELISAs only)
phospho-MET ELISA EC50, A549 cells [1]: 0.19 nM
phospho-MET ELISA EMAX (% HGF activity), A549 cells [1]: 100%
scatter score 0-4, HPAF-II, 0.001 nM [2]: 0 score
scatter score 0-4, HPAF-II, 0.004 nM [2]: 1 score
scatter score 0-4, HPAF-II, 0.012 nM [2]: 2 score
scatter score 0-4, HPAF-II, 0.037 nM [2]: 3 score
scatter score 0-4, HPAF-II, 0.111 nM [2]: 4 score
scatter score 0-4, HPAF-II, 0.333 nM [2]: 4 score
scatter score 0-4, HPAF-II, 1.000 nM [2]: 4 score
scatter score 0-4, HPAF-II, 3.000 nM [2]: 4 score
scatter score 0-4, HPAF-II, 9.000 nM [2]: 4 score
protection from staurosporine, viability EC50, MCF10A cells [3]: 4.57 nM
protection from staurosporine, viability EMAX, MCF10A cells [3]: 59.3%
branches per spheroid, LOC cells, 2.5 nM [4]: 27.7 branches
branches per spheroid, LOC cells, 12.5 nM [4]: 20.3 branches
